Experimental data reported in the supplement of paper PMC4967469.
pIC50: −log10 of the molar value. By IC50 is meant the dose at which the fit gives 50% viability; fits outside the tested doses are given as limits. AUC, from the same fit, is the share of area under the viability curve across the 256-fold dose range: 1 means no effect, lower means more sensitive. For some of these results: An inferred top dose was calculated from the reported fits. For some of these results: Where an entry number is given, a second screen of the drug exists; the two often differ.

Legend:
Test in all cases: Viability of human cancer cell lines after 72 h of drug (GDSC screen)
(5Z)-7-Oxozeaenol = compound: COc1cc(O)c2c(c1)/C=C/C[C@H](O)[C@H](O)C(=O)/C=C\C[C@H](C)OC2=O [(5Z)-7-Oxozeaenol]; conditions: top dose 10 µM; top dose inferred
Protocol: (§1)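 Human cancer cell lines in 384-well plates, medium with 10% serum, drug for 72 h over a 256-fold dose range (nine 2-fold or five 4-fold steps up to the top dose). Adherent lines were fixed and stained with the nucleic acid dye Syto60, suspension lines read with resazurin; signal relative to control wells, capped at 0 and 100%. One two-parameter sigmoid per drug and line, fitted in a mixed model over all curves with the slope shared within a line.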

CMK = compound: Cc1ccc(-c2c(C(=O)CCl)n(CCCO)c3ncnc(N)c23)cc1 [CMK]; conditions: top dose 4 µM; top dose inferred
Protocol: as §1

ABT-888 = compound: C[C@]1(c2nc3c(C(N)=O)cccc3[nH]2)CCCN1 [ABT-888]; conditions: top dose 5 µM; top dose inferred
Protocol: as §1

CHIR-99021 = compound: Cc1cnc(-c2cnc(NCCNc3ccc(C#N)cn3)nc2-c2ccc(Cl)cc2Cl)[nH]1 [CHIR-99021]
Protocol: as §1

KU-55933 = compound: O=c1cc(-c2cccc3c2Sc2ccccc2S3)oc(N2CCOCC2)c1 [KU-55933]; conditions: top dose 10 µM
Protocol: as §1

MPS-1-IN-1 = compound: COc1cc(N2CCC(O)CC2)ccc1Nc1cc(Nc2ccccc2S(=O)(=O)C(C)C)c2cc[nH]c2n1 [MPS-1-IN-1]; conditions: top dose 20 µM; top dose inferred
Protocol: as §1

Cytarabine = compound: Nc1ccn([C@@H]2O[C@H](CO)[C@@H](O)[C@@H]2O)c(=O)n1 [Cytarabine]; conditions: top dose 2 µM
Protocol: as §1

GSK269962A = compound: CCn1c(-c2nonc2N)nc2cnc(Oc3cccc(NC(=O)c4ccc(OCCN5CCOCC5)cc4)c3)cc21 [GSK269962A]; conditions: top dose inferred
Protocol: as §1

Thapsigargin = compound: C/C=C(/C)C(=O)O[C@H]1C(C)=C2[C@H]([C@@H]1OC(=O)CCCCCCC)[C@@](C)(OC(C)=O)C[C@H](OC(=O)CCC)[C@@]1(O)[C@H]2OC(=O)[C@@]1(C)O [Thapsigargin]; conditions: top dose 0.512 µM; top dose inferred
Protocol: as §1

ABT-869 = compound: Cc1ccc(F)c(NC(=O)Nc2ccc(-c3cccc4[nH]nc(N)c34)cc2)c1 [ABT-869]; conditions: top dose 1.024 µM; top dose inferred
Protocol: as §1

CP466722 = compound: COc1cc2ncnc(-n3nc(-c4ccccn4)nc3N)c2cc1OC [CP466722]; conditions: top dose 16 µM; top dose inferred
Protocol: as §1

Zibotentan = compound: COc1nc(C)cnc1NS(=O)(=O)c1cccnc1-c1ccc(-c2nnco2)cc1 [Zibotentan]; conditions: top dose 20 µM; top dose inferred
Protocol: as §1

QL-X-138 = compound: C=CC(=O)Nc1cc(-n2c(=O)ccc3cnc4ccc(-c5cn[nH]c5)cc4c32)ccc1C [QL-X-138]; conditions: top dose 10.24 µM; top dose inferred
Protocol: as §1

[1] = top dose 2.56 µM, screen: GDSC drug entry 154
[2] = top dose 10 µM, screen: GDSC drug entry 1241, top dose inferred
[3] = top dose 2.5 µM, screen: GDSC drug entry 127
[4] = top dose 5 µM, screen: GDSC drug entry 1192

Cell Line: HA7-RCC (kidney, adherent)
- AUC ((5Z)-7-Oxozeaenol): 0.735
- pIC50 ((5Z)-7-Oxozeaenol): 5.50
- AUC (CMK): 0.865
- pIC50 (CMK): < 5.40
- AUC (ABT-888): 0.98
- pIC50 (ABT-888): < 5.30
- AUC (CHIR-99021; [1]): 0.985
- pIC50 (CHIR-99021; [1]): < 5.59
- AUC (CHIR-99021; [2]): 0.901
- pIC50 (CHIR-99021; [2]): < 5.00
- AUC (KU-55933): 0.934
- pIC50 (KU-55933): < 5.00
- AUC (MPS-1-IN-1): 0.882
- pIC50 (MPS-1-IN-1): < 4.70
- AUC (Cytarabine): 0.764
- pIC50 (Cytarabine): 6.10
- AUC (GSK269962A; [3]): 0.968
- pIC50 (GSK269962A; [3]): < 5.60
- AUC (GSK269962A; [4]): 0.929
- pIC50 (GSK269962A; [4]): < 5.30
- AUC (Thapsigargin): 0.68
- pIC50 (Thapsigargin): 6.97
- AUC (ABT-869): 0.98
- pIC50 (ABT-869): < 5.99
- AUC (CP466722): 0.87
- pIC50 (CP466722): < 4.80
- AUC (Zibotentan): 0.981
- pIC50 (Zibotentan): < 4.70
- AUC (QL-X-138): 0.895
- pIC50 (QL-X-138): < 4.99

Cell Line: HAL-01 (lymphoblastic leukaemia, suspension)
- AUC ((5Z)-7-Oxozeaenol): 0.584
- pIC50 ((5Z)-7-Oxozeaenol): 5.99
- AUC (CMK): 0.921
- pIC50 (CMK): < 5.40
- AUC (ABT-888): 0.973
- pIC50 (ABT-888): < 5.30
- AUC (CHIR-99021; [1]): 0.984
- pIC50 (CHIR-99021; [1]): < 5.59
- AUC (CHIR-99021; [2]): 0.89
- pIC50 (CHIR-99021; [2]): 5.03
- AUC (KU-55933): 0.857
- pIC50 (KU-55933): 5.18
- AUC (MPS-1-IN-1): 0.836
- pIC50 (MPS-1-IN-1): 4.95
- AUC (Cytarabine): 0.321
- pIC50 (Cytarabine): 7.37
- AUC (GSK269962A; [3]): 0.872
- pIC50 (GSK269962A; [3]): 5.72
- AUC (GSK269962A; [4]): 0.811
- pIC50 (GSK269962A; [4]): 5.64
- AUC (Thapsigargin): 0.857
- pIC50 (Thapsigargin): 6.47
- AUC (ABT-869): 0.989
- pIC50 (ABT-869): < 5.99
- AUC (CP466722): 0.517
- pIC50 (CP466722): 5.95
- AUC (Zibotentan): 0.963
- pIC50 (Zibotentan): < 4.70
- AUC (QL-X-138): 0.544
- pIC50 (QL-X-138): 6.08

Cell Line: HCC1187 (breast, suspension)
- AUC ((5Z)-7-Oxozeaenol): 0.803
- pIC50 ((5Z)-7-Oxozeaenol): 5.33
- AUC (CMK): 0.97
- pIC50 (CMK): < 5.40
- AUC (ABT-888): 0.984
- pIC50 (ABT-888): < 5.30
- AUC (CHIR-99021; [1]): 0.972
- pIC50 (CHIR-99021; [1]): < 5.59
- AUC (CHIR-99021; [2]): 0.825
- pIC50 (CHIR-99021; [2]): 5.25
- AUC (KU-55933): 0.957
- pIC50 (KU-55933): < 5.00
- AUC (MPS-1-IN-1): 0.938
- pIC50 (MPS-1-IN-1): < 4.70
- AUC (Cytarabine): 0.957
- pIC50 (Cytarabine): < 5.70
- AUC (GSK269962A; [3]): 0.955
- pIC50 (GSK269962A; [3]): < 5.60
- AUC (Thapsigargin): 0.791
- pIC50 (Thapsigargin): 6.66
- AUC (ABT-869): 0.981
- pIC50 (ABT-869): < 5.99
- AUC (CP466722): 0.758
- pIC50 (CP466722): 5.27
- AUC (Zibotentan): 0.988
- pIC50 (Zibotentan): < 4.70
- AUC (QL-X-138): 0.845
- pIC50 (QL-X-138): 5.16

Cell Line: HCC2157 (breast, suspension)
- AUC ((5Z)-7-Oxozeaenol): 0.796
- pIC50 ((5Z)-7-Oxozeaenol): 5.30
- AUC (CMK): 0.965
- pIC50 (CMK): < 5.40
- AUC (ABT-888): 0.987
- pIC50 (ABT-888): < 5.30
- AUC (CHIR-99021; [1]): 0.987
- pIC50 (CHIR-99021; [1]): < 5.59
- AUC (CHIR-99021; [2]): 0.98
- pIC50 (CHIR-99021; [2]): < 5.00
- AUC (KU-55933): 0.868
- pIC50 (KU-55933): 5.01
- AUC (MPS-1-IN-1): 0.986
- pIC50 (MPS-1-IN-1): < 4.70
- AUC (Cytarabine): 0.926
- pIC50 (Cytarabine): < 5.70
- AUC (GSK269962A; [3]): 0.987
- pIC50 (GSK269962A; [3]): < 5.60
- AUC (GSK269962A; [4]): 0.984
- pIC50 (GSK269962A; [4]): < 5.30
- AUC (Thapsigargin): 0.228
- pIC50 (Thapsigargin): 8.31
- AUC (ABT-869): 0.987
- pIC50 (ABT-869): < 5.99
- AUC (CP466722): 0.963
- pIC50 (CP466722): < 4.80
- AUC (Zibotentan): 0.987
- pIC50 (Zibotentan): < 4.70
- AUC (QL-X-138): 0.783
- pIC50 (QL-X-138): 5.34
